Laboratory results published in patent publication US20040157314A1 (PHAGETECH, published 2004).

Target: T1, STAAU_R12 (S. aureus RNA polymerase primary sigma factor), native protein of S. aureus RN4220 (Staphylococcus aureus, UniProt P0A0I8 1-368)
T1 construct: also called PT46; sigma SA
Assay: affinity chromatography of S. aureus lysate on GST cross-linked to Affigel 10, SDS-PAGE silver stain

B1: GST (other)
chain: not shown
notes: also called GST control
B1: no binding.
